Data: PubChem BioAssay AID652104 (National Center for Advancing Translational Sciences (NCATS), 2013)
About 7,200 (1.8%) of roughly 410,000 compounds were called active. This list was built around the results that the source calls inconclusive (neither active nor inactive); the mix of calls is not that of the screen. Calls follow the shape of the dose curve; as a rule, active = well fitted activation curve with a large enough effect; inconclusive = small, poorly fitted or top-dose-only effect, or another doubt; inactive = no such curve, though single readings can be large or run the other way. Potencies beside an inconclusive call are fits to weak or partial responses and may not hold up.

Experiment: qHTS of TDP-43 Inhibitors; also: nearly all actives have a fitted effect of over 50% in size; as to growth rescue (activation): % of control where 0% means no effect
Settings: TDP-43 expressing yeast growth rescue, BacTiter-Glo, 24 h; growth rescue (activation): at 46.1 µM (top of the series) unless noted
How it was run: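 Luminescence from BacTiter-Glo reports growth of TDP-43-expressing yeast after 24 hr at 30 deg C with compound. Cells were raffinose-pregrown to mid-log, then seeded in galactose medium at OD600=0.02.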
Potency is read from the fitted curve at half-maximal effect; tags tell the direction and shape of the fitted curve.

Potency, inconclusive:
CC(C)c1ccc(NC(=O)C2Cc3c(-c4ccc(Cl)cc4)ccnc3O2)cc1 (configuration not stated) 15.8 µM [activator, single point]
CC(=O)c1ccc(COC(=O)Cc2ccc([N+](=O)[O-])cc2)cc1 12.6 µM [activator, partial curve]
O=C(NCCc1csc(-c2ccc(C(F)(F)F)cc2)n1)c1ccccc1Cl 1.12 µM [activator, full curve]
S=c1[nH]c(-c2ccccc2)cn1/N=C/c1cccc2ccccc12 11.2 µM [activator, single point]
CC1(C(=O)NCc2cccc(Cl)c2)Cc2c(-c3ccccc3)ccnc2O1 (configuration not stated) 28.2 µM [activator, single point]
OC[C@@H]1[C@@H](c2ccc(Cl)cc2)C(c2ccccc2)=NN1c1ccccc1 35.5 µM [activator, single point]
CSc1nsc(SCC(=O)Nc2ccc(Cl)c(C(=O)O)c2)n1 35.5 µM [activator, partial curve, poor fit]
COc1cc(CNC(=O)c2cc(-c3cc(F)ccc3OC(C)C)n[nH]2)cc(OC)c1 35.5 µM [activator, single point]
Cc1ccc(C(=O)N2CCc3cc(CNC(=O)c4ccccc4F)ccc32)cc1 22.4 µM [activator, single point]
O=[N+]([O-])c1ccccc1S(=O)(=O)NCCSCc1ccco1 35.5 µM [activator, partial curve]
O=C(NCCC1=CCCCC1)c1coc(=O)c(Br)c1 7.08 µM [activator, full curve, poor fit]
COC(=O)[C@]1(C)CCC[C@@]2(C)C3CC[C@@]4(C)C[C@]3(CCC21)CC4=NO (some centres not stated) 15.8 µM [activator, partial curve]
Cc1ccc(C(=O)c2cc([N+](=O)[O-])ccc2N2CCOCC2)cc1C 22.4 µM [activator, single point]
Cc1ccc(NC(=O)N(Cc2c[nH]c3ccccc23)C2CCCCCC2)cc1C 35.5 µM [activator, partial curve, poor fit]
Cc1cc(F)ccc1S(=O)(=O)N1CCC2(CC1)OCCN2S(=O)(=O)c1cccs1 14.1 µM [activator, single point]
Cc1ccccc1NC(=O)c1cc2ccccc2o1 3.55 µM [activator, single point]
CCCCn1c(N)c(N(CCC(C)C)C(=O)COC(=O)c2ccccc2)c(=O)[nH]c1=O 7.94 µM [activator, partial curve]
COc1cccc(-c2csc(N3CCN(C(=O)C4CCCCC4)CC3)n2)c1 28.2 µM [activator, single point]
COc1ccc(-n2c(=O)c3c4c(sc3n(Cc3c(F)cccc3Cl)c2=O)CN(C(C)=O)CC4)cc1OC 11.2 µM [activator, partial curve]
O=C1C=C(c2ccc(O)cc2)C[C@@H](c2ccc(Cl)cc2)C1 6.31 µM [activator, single point]
C#Cc1ccc2c(c1)COc1c3ccccc3nn1-2 1.26 µM [activator, full curve]
O=C(C1CN(C(=O)c2cc3ccccc3o2)c2ccccc2O1)N1CCCCC1 (configuration not stated) 20 µM [activator, single point]
COc1ccc(C2CC(=O)N(Cc3cccc(C)c3)c3c2c(C)nn3-c2nc(C)cc(C)n2)c(OC)c1 (configuration not stated) 6.31 µM [activator, single point]
Cc1ccc(S(=O)(=O)NCCC(=O)N2CCN(c3cccc(Cl)c3)CC2)cc1C 35.5 µM [activator, single point]
O=C1CCCC(=O)C1Sc1ccc(Cl)cc1 12.6 µM [activator, single point]
CCNc1nn2ccccc2c1/C=C(\C#N)C(=O)OCC 2.24 µM [activator, full curve, poor fit]
Cc1ccc(CCNC(=O)c2ccc(CS(=O)(=O)Cc3ccc(Cl)cc3)o2)cc1 20 µM [activator, partial curve]
CC(=O)c1c(C)nc2ccc(Br)cc2c1-c1ccccc1 35.5 µM [activator, single point]
CC(=O)Nc1ccc(-c2ccnc3c2CC(C(=O)Nc2cccc(Oc4ccccc4)c2)O3)cc1 (configuration not stated) 28.2 µM [activator, partial curve]
COc1ccc(Cl)cc1NC(=S)Nc1ccccc1C 12.6 µM [activator, single point]
CC(C)(C)NC[C@@H](O)COc1cccc2c1CCCC2=O 35.5 µM [activator, partial curve, poor fit]
O=C(c1cc(COc2c(F)cccc2F)on1)N1CC[C@@H]2CCCC[C@H]2C1 11.2 µM [activator, partial curve, poor fit]
NC1=NC(=Nc2cccc(Cl)c2)c2ccccc21 12.6 µM [activator, partial curve]
COc1cccc(NC(=O)COC(=O)c2c(F)cccc2Cl)c1 35.5 µM [activator, single point]
O=C(Cc1cccs1)NNC(=S)NC(=O)c1ccco1 31.6 µM [activator, single point]
COc1ccc(-c2csc(NC(=O)CC(C)C)n2)cc1 15.8 µM [activator, partial curve]
O=C(Nc1ccccc1)C1=C[C@H](c2csc3ccccc23)C[C@H](OCCCCO)O1 31.6 µM [activator, single point]
CSc1cccc(NS(=O)(=O)c2cc(Br)cnc2N)c1 3.55 µM [activator, partial curve]
Nn1c(SCc2cccc(Oc3ccccc3)c2)nnc1C(F)(F)F 15.8 µM [activator, single point]
CCOC(=O)c1[nH]c2ccc(OC)cc2c1C 15.8 µM [activator, partial curve]
Cc1ccc(CCNC(=O)c2nnc(Cc3cccc(F)c3)o2)cc1 2.82 µM [activator, full curve]

Potency, active:
CC(C)C(=O)N1CCN(c2ccc([N+](=O)[O-])c(NC(C)c3ccccc3)c2)CC1 (configuration not stated) 20 µM
O=C(NNC(=O)c1csc(-c2cccs2)n1)c1ccc(Cl)cc1 22.4 µM
O=[N+]([O-])c1cc(/C=N/O)ccc1Sc1ccccc1 3.16 µM
CC1(C)CN(c2ccc(Br)cc2)C(=O)[C@H]1CC(=O)Nc1ccccc1 17.8 µM
Cc1cccc(-c2nnc(-c3ccc(N)cc3)o2)c1 8.91 µM
Fc1cccc(F)c1CSc1nc2ccccc2[nH]1 12.6 µM
O=C(NC1CCCCC1)c1ccc(-c2ccccc2F)o1 12.6 µM
O=C1C(=O)N(CC2COc3ccccc3O2)c2ccccc21 (configuration not stated) 28.2 µM
Oc1cccc(-c2csc(C(O)(c3ccccc3)C(F)(F)F)n2)c1 (configuration not stated) 22.4 µM
CC1(C(=O)NS(=O)(=O)c2ccc(Cl)cc2)CCN1C(=O)C1(c2ccccc2)CCCC1 (configuration not stated) 14.1 µM

Potency, inactive:
CCc1ccccc1NC(=O)CC(O)(C(=O)OC)C(F)(F)F (configuration not stated)
Clc1ccc(-c2nnc3ccccn23)cc1
O=C(Nc1ccc(F)cc1)N1CCN(c2nc3ccccc3s2)CC1
Cc1ccc(C(=O)N/C(=C\c2ccco2)C(=O)N2CCCCC2)cc1
CCOc1ccc(C2=C(C(C)=O)Sc3nnc(C)n3N2C(C)=O)cc1
Cc1ccc(S(=O)(=O)N2CCN(C(=O)Cc3ccccc3)CC2)cc1C
CCOC(=O)CN1CCC(C2(c3cc4ccccc4[nH]3)OCCO2)CC1
COc1ccc(C(=O)c2ccc(OC)c(OC)c2)cc1OC
COc1cccc(-c2nc(SCC(=O)NCc3ccccc3)c3c(=O)n(C)c(=O)n(C)c3n2)c1
O=S(=O)(c1ccccc1)n1nc(-c2ccc(Cl)cc2)nc1NCc1ccc(F)cc1
O=C(Oc1ccc2c(=O)c(Oc3ccc4ccccc4c3)coc2c1)c1cccnc1
COC(=O)c1cc(NC(=O)CSc2nc(C)cc(=O)[nH]2)cc(C(=O)OC)c1
CC(Nc1ncnc2c1cnn2-c1cccc(Cl)c1)c1ccccc1 (configuration not stated)
CCOC(=O)c1scc(-c2ccc(C)cc2)c1S(=O)(=O)Nc1cc(C)ccc1C
CCOC(=O)c1ccc(NC(=O)CSc2nnc(-c3cccs3)n2C)cc1
O=C(Cn1nnc(-c2ccc(Cl)cc2)n1)NC1CCS(=O)(=O)C1 (configuration not stated)
CCCCN(C)CCNC(=O)c1cc2c(-c3ccccc3F)nn(C)c2s1
COc1ccc2ccccc2c1CN1CCCC(CO)C1 (configuration not stated)

Growth rescue (activation), inconclusive:
COC(=O)CSc1nc2cc3c(cc2cc1C)OCO3 -39% [activator]
Cc1cc(C)n(C(C[N+](=O)[O-])c2ccc(Cl)cc2)n1 (configuration not stated) -89.7% [activator]
Cc1ccc(C(=O)NNC(=S)NC(=O)c2ccccc2)cc1 -62.9% [activator]
